Reference: the supplement of paper PMC4967469

Key:
Assay in all cases: Viability of human cancer cell lines after 72 h of drug (GDSC screen)
CAY10603 = compound: CC(C)(C)OC(=O)Nc1ccc(-c2cc(C(=O)NCCCCCCC(=O)NO)no2)cc1 [CAY10603]; conditions: top dose 20 µM; top dose inferred
Experimental: (§1)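 Human cancer cell lines in 384-well plates, medium with 10% serum, drug for 72 h over a 256-fold dose range (nine 2-fold or five 4-fold steps up to the top dose). Adherent lines were fixed and stained with the nucleic acid dye Syto60, suspension lines read with resazurin; signal relative to control wells, capped at 0 and 100%. One two-parameter sigmoid per drug and line, fitted in a mixed model over all curves with the slope shared within a line.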

XMD8-92 = compound: CCOc1cc(N2CCC(O)CC2)ccc1Nc1ncc2c(n1)N(C)c1ccccc1C(=O)N2C [XMD8-92]; conditions: top dose 10 µM; top dose inferred
Experimental: as §1

CH5424802 = compound: CCc1cc2c(cc1N1CCC(N3CCOCC3)CC1)C(C)(C)c1[nH]c3cc(C#N)ccc3c1C2=O [CH5424802]; conditions: top dose 5.12 µM; top dose inferred
Experimental: as §1

ACHP (KIN001-260) = compound: N#Cc1c(C2CCNCC2)cc(-c2c(O)cccc2OCC2CC2)nc1N [ACHP (KIN001-260)]; conditions: top dose 20 µM; top dose inferred
Experimental: as §1

Cell Line	AUC (CAY10603)	IC50 (CAY10603)	AUC (XMD8-92)	IC50 (XMD8-92)	AUC (CH5424802)	IC50 (CH5424802)	AUC (ACHP (KIN001-260))	IC50 (ACHP (KIN001-260))
Hs-578-T (breast, adherent)	0.758	7340 nM	0.928	> 10 µM	0.93	> 5.12 µM	0.987	> 20 µM
SW1271 (small cell lung carcinoma, adherent)	0.504	1280 nM	0.931	> 10 µM	0.979	> 5.12 µM	0.857	> 20 µM
CAL-62 (thyroid, adherent)	0.687	4050 nM	0.765	3.5 µM	0.988	> 5.12 µM	0.988	> 20 µM
BT-474 (breast, adherent)	0.54	1620 nM	0.764	4.04 µM	0.986	> 5.12 µM	0.937	> 20 µM
UWB1.289 (ovary, adherent)	0.638	3630 nM	0.889	> 10 µM	0.976	> 5.12 µM	0.979	> 20 µM
VCaP (prostate, adherent)	0.405	680 nM	0.88	> 10 µM	0.892	> 5.12 µM	0.987	> 20 µM
BT-20 (breast, adherent)	0.745	7600 nM	0.966	> 10 µM	0.981	> 5.12 µM	0.981	> 20 µM
GR-ST (lymphoblastic leukaemia, suspension)	0.476	1060 nM	0.794	5.72 µM	0.973	> 5.12 µM	0.877	> 20 µM
GT3TKB (stomach, adherent)	0.676	3620 nM	0.842	5.85 µM	0.99	> 5.12 µM	0.989	> 20 µM
Hey (ovary, adherent)	0.394	651 nM	0.926	> 10 µM	0.98	> 5.12 µM	0.977	> 20 µM
NCI-H1688 (small cell lung carcinoma, adherent)	0.561	1870 nM	0.982	> 10 µM	0.986	> 5.12 µM	0.966	> 20 µM
no-10 (glioma, adherent)	0.606	2620 nM	0.903	> 10 µM	0.977	> 5.12 µM	0.979	> 20 µM
FLO-1 (oesophagus, adherent)	0.555	1880 nM	0.885	> 10 µM	0.946	> 5.12 µM	0.922	> 20 µM
EW-11 (Ewing sarcoma, adherent)	0.443	838 nM	0.814	7.53 µM	0.633	0.833 µM	0.952	> 20 µM
MLMA (hairy cell leukaemia, semi-adherent)	0.322	397 nM	0.861	8.56 µM	0.919	> 5.12 µM	0.859	16.8 µM
RPMI-8402 (T-cell lymphoblastic leukaemia, suspension)	0.172	161 nM	0.876	7.25 µM	0.957	> 5.12 µM	0.832	10.1 µM
T-24 (bladder, adherent)	0.708	4660 nM	0.865	8.2 µM	0.984	> 5.12 µM	0.981	> 20 µM
TK (B-cell lymphoma, suspension)	0.339	468 nM	0.969	> 10 µM	0.981	> 5.12 µM	0.947	> 20 µM
BT-483 (breast, adherent)	0.825	> 20000 nM	0.975	> 10 µM	0.961	> 5.12 µM	0.977	> 20 µM
NCI-H1648 (lung adenocarcinoma, adherent)	0.474	1060 nM	0.967	> 10 µM	0.899	> 5.12 µM	0.983	> 20 µM
BB65-RCC (kidney, adherent)	0.52	1430 nM	0.896	> 10 µM	0.983	> 5.12 µM	0.955	> 20 µM
MFM-223 (breast, adherent)	0.601	2360 nM	0.856	7.89 µM	0.985	> 5.12 µM	0.982	> 20 µM
SU8686 (pancreas, adherent)	0.725	5970 nM	0.851	9.16 µM	0.979	> 5.12 µM	0.974	> 20 µM
JJN-3 (haematopoietic neoplasm, suspension)	0.376	609 nM	0.869	6.53 µM	0.993	> 5.12 µM	0.876	13.9 µM
LS-123 (large intestine, adherent)	0.56	1920 nM	0.98	> 10 µM	0.971	> 5.12 µM	0.972	> 20 µM
NCI-H720 (lung carcinoid, suspension)	0.968	> 20000 nM	0.971	> 10 µM	0.992	> 5.12 µM	0.991	> 20 µM

Lines with a small IC50 respond at low doses; where the fit passes the top or lowest dose, that dose stands as a limit. AUC, from the same fit, is the share of area under the viability curve across the 256-fold dose range: 1 means no effect, lower means more sensitive. Where the top dose is marked as inferred, it comes from the curve model; the source does not state it.
